Source: PubChem BioAssay AID463173 (ICCB-Longwood Screening Facility, Harvard Medical School, 2010)
Hit rate of the full screen: of about 52,000 compounds, about 4,300 (8.3%) were called active. Cut-off read from the data, not from the text of the source: active = survival mostly below about 52% (no sharp cut-off); inactive = mostly above about 56%. The list shows a part of the results.

What follows are compounds tested on DeltatarO mutant (assay: S. aureus survival, RN4220 and DeltatarO strains – OD600, teichoic acid synthesis inhibitors, primary screen (AID 463173)). Conditions: S. aureus RN4220 wild type/DeltatarO growth, OD600, 18 h, hits give low values, screened at 18.75 µg/mL (by protocol).
`Clc1ccc(Nc2c(-c3cccs3)nc3ccc(Cl)cn23)cc1` was tested, and the survival was inactive: 93%.
For `COc1ccc(CCNC(=O)Cn2c(=O)cc(C(F)(F)F)c3c(C)nn(C)c32)cc1OC`, the survival was inactive: 78%.
`CCOC(=O)c1c(C)oc2nc(C)nc(N(CC(C)C)CC(C)C)c12` was tested, and the survival was inactive: 99%.
In the case of `Cc1c(Cl)cccc1NC(=O)c1ccc2c(c1)nnn2C1CCCC1`, the survival is reported as inactive: 108%.
For `O=C(NCCCN1CCN(c2ccc(F)cc2)CC1)C1COc2ccccc2C1` (centres undefined), the survival was inactive: 55%.
With `CCc1ccc(NC(=O)c2ccc3c(=O)n4nc(Nc5ccccc5C)sc4nc3c2)cc1` the survival was inactive: 76%.
In the case of `O=C(Nc1ccccc1C(=O)OCc1cc(=O)n2c3c(sc2n1)CCCC3)c1ccccc1`, the survival is reported as inactive: 107%.
`O=C(CCS(=O)(=O)c1ccccc1)N(Cc1cccnc1)c1nc2c(Cl)cccc2s1` was tested, and the survival was inactive: 84%.
`Cc1cc(C)c2[nH]c(=O)c(CN(C(=O)Nc3ccccc3F)C3CC3)cc2c1` was tested, and the survival was inactive: 69%.
With `C=CCc1c(C)nc2nc(SCC(=O)Nc3cccc(Cl)c3)nn2c1C` the survival was inactive: 102%.
For `Cc1cccc(Nc2nc3nonc3nc2Nc2cccc(C)c2C)c1C`, the survival was inactive: 66%.
`CC(C)CN(CC(C)C)c1nc(-c2ccc(Cl)cc2)nc2ccccc12` was tested, and the survival was active: -1%.
`Cc1ccc(NCc2nnc(SCC(=O)N3c4ccccc4CCc4ccccc43)o2)c(C)c1` was tested, and the survival was inactive: 120%.
With `CCCC(c1nnnn1CC1CCCO1)N(Cc1cccs1)Cc1cc2ccc(C)c(C)c2[nH]c1=O` (centres undefined) the survival was inactive: 71%.
`Cc1ccc(NC(=O)N2CC3CCCN3c3ccccc32)cc1C` (centres undefined) was tested, and the survival was active: -4%.
For `COc1ccccc1CCNC(=O)C(=O)NCC(c1ccco1)S(=O)(=O)c1cccs1` (centres undefined), the survival was inactive: 81%.
In the case of `COc1ccc(C(=O)Nc2ccc(NC(=O)c3cccs3)cc2)cc1OC`, the survival is reported as inactive: 72%.
`Cc1cccc(C(=O)NCC(c2cccs2)S(=O)(=O)c2cccs2)c1` (centres undefined) was tested, and the survival was inactive: 81%.
In the case of `CCOC(=O)c1c(C)[nH]c(C)c1S(=O)(=O)N1CCCC(C(=O)Nc2ncccc2C)C1` (centres undefined), the survival is reported as inactive: 83%.
With `Cc1oc(-c2ccc(C(=O)NCCC(C)C)cc2)nc1CS(=O)(=O)c1ccccc1` the survival was inactive: 102%.
For `CC(C)CCn1c(=O)c2cccnc2n(CC(=O)Nc2ccccc2)c1=O`, the survival was inactive: 72%.
In the case of `N#Cc1c[nH]n2c(NC3CCCC3)c(-c3cccc(Br)c3)nc12`, the survival is reported as inactive: 45%.
In the case of `COC(=O)c1sccc1S(=O)(=O)N(CC(=O)NCc1ccc(C)cc1)c1ccccc1`, the survival is reported as inactive: 84%.
For `OC(C#CCN1CCOCC1)(c1ccccc1)c1ccccc1`, the survival was inactive: 95%.
For `CC1CCN(S(=O)(=O)c2ccc3c(c2)CCN3C(=O)Nc2cccc(Br)c2)CC1`, the survival was inactive: 92%.
For `Cc1ccc(S(=O)(=O)NC2(C(F)(F)F)NC(=O)N(c3ccc(F)cc3)C2=O)cc1` (centres undefined), the survival was inactive: 70%.
With `CCOCCc1nn2c(=O)cc(COC(=O)c3ccccc3NC(=O)c3ccccc3F)nc2s1` the survival was inactive: 80%.
In the case of `CCOC(=O)c1ccc(CN(Cc2ccc(C)cc2)S(=O)(=O)c2ccc(F)c(C(=O)Nc3ccc(C)c(F)c3)c2)cc1`, the survival is reported as inactive: 70%.
In the case of `CCOc1ccc(C(=O)c2cn(CC(=O)Nc3ccc(OC)cc3)c3cc4c(cc3c2=O)OCO4)cc1`, the survival is reported as inactive: 69%.
With `CC(=O)Oc1ccc(Nc2nc3nonc3nc2Nc2ccccc2)cc1` the survival was inactive: 83%.
In the case of `O=C(NCC(c1ccc2c(c1)OCO2)N1CCN(c2ccccc2)CC1)C(=O)Nc1ccc(F)cc1` (centres undefined), the survival is reported as inactive: 76%.
`CCOC(=O)Cc1cc(C(=O)Nc2ccc(Br)cc2)sc1-c1ccc(C)cc1` was tested, and the survival was inactive: 110%.
`Cc1cccc(C)c1NC(=O)Cn1c(=O)n(Cc2ccc(C(=O)NCc3ccco3)cc2)c(=O)c2sccc21` was tested, and the survival was inactive: 59%.
For `CCOCCCn1c(=N)c(C(=O)NC(C)c2ccccc2)cc2c(=O)n3cc(C)ccc3nc21` (centres undefined), the survival was inactive: 64%.
For `Cc1ccn2c(NC(=O)c3cccc(Cl)c3)c(-c3ccccc3)nc2c1`, the survival was inactive: 65%.
`CCCC(=O)N1CCc2cc(OC)c(OC)cc2C1COc1ccccc1OC` (centres undefined) was tested, and the survival was inactive: 49%.
For `CCc1ccc(CNc2ncc(-c3cccc(OC)c3)n2C)cc1`, the survival was active: 8%.
In the case of `CCCSc1ncc(Cl)c(C(=O)Nc2ccc(S(=O)(=O)N3CCCC(C)C3)cc2)n1` (centres undefined), the survival is reported as inactive: 56%.
`CCc1nnc(SCc2nc(-c3ccccc3Cl)oc2C)c2cc3sc(C)cc3n12` was tested, and the survival was inactive: 81%.
`O=C(Nc1nc2c(F)cccc2s1)c1ccc(S(=O)(=O)N2CCOCC2)cc1` was tested, and the survival was inactive: 103%.
`COc1ccc2[nH]cc(CCNC(=O)Nc3ccccc3)c2c1` was tested, and the survival was inactive: 86%.
`Cc1ccc(NC(=O)CN2C(=O)c3cccnc3Sc3ccccc32)cc1C` was tested, and the survival was inactive: 83%.
With `COc1ccc(CN(C(=O)c2ccccc2F)C2CCS(=O)(=O)C2)cc1` (centres undefined) the survival was inactive: 75%.
For `O=C(NCC1CCCO1)C1CC(c2ccccc2O)=NO1` (centres undefined), the survival was inactive: 91%.
For `Cc1cc(C)cc(OCC(=O)Nc2nonc2-c2ccc(Br)cc2)c1`, the survival was inactive: 107%.
`Cc1ccc2c(Sc3ccc(Cl)cc3)c(C(=O)NCCC(C)C)[nH]c2c1` was tested, and the survival was inactive: 80%.
With `Cc1cccc(N2CCN(C(=O)c3ccc4nc(N5CCC(C)CC5)sc4c3)CC2)c1C` the survival was active: 1%.
In the case of `COc1ccc(CN(Cc2ccco2)C(=O)COc2ccc(Cl)cc2C)cc1`, the survival is reported as inactive: 71%.
For `CCOC(=O)c1c(S(=O)(=O)N2CCCC(C(=O)NCc3ccc(F)cc3)C2)c(C)n(CC)c1C` (centres undefined), the survival was inactive: 86%.
With `Cc1ccc2c(c1)cc1c(=O)n(CC(=O)N(C)c3ccccc3)nc(C)n12` the survival was inactive: 129%.
With `CC(=O)N1CCc2c(sc3c2c(=O)n(-c2cccc(Cl)c2C)c(=O)n3Cc2ccccc2C)C1` the survival was inactive: 61%.
With `CCOC(=O)/C(C#N)=C\c1ccc(-c2cccc(C(F)(F)F)c2)o1` the survival was inactive: 84%.
In the case of `O=C(CCCCn1c(=O)[nH]c2ccsc2c1=O)N1CCN(c2cccc(C(F)(F)F)c2)CC1`, the survival is reported as inactive: 51%.
In the case of `COc1ccc(NC(=O)Cn2cc(S(=O)(=O)N3CCC(C)CC3)c3ccccc3c2=O)cc1Cl`, the survival is reported as inactive: 95%.
For `COc1ccc2c(c1)c1c(c(=O)n(-c3ccc(C)cc3)c(=O)n1CC(=O)c1ccc(Cl)cc1)n2C`, the survival was inactive: 81%.
For `CN(C)C(=O)CSc1n[nH]c(-c2ccccc2)n1`, the survival was inactive: 103%.
In the case of `Cc1ccc(C)c(CNS(=O)(=O)c2ccc3c(c2)C(C)(C)C(=O)N3C)c1`, the survival is reported as inactive: 84%.
`CC1CCN(S(=O)(=O)c2ccc3c(c2)N(CC(=O)NCCN(C)C)C(=O)CO3)CC1` was tested, and the survival was inactive: 99%.
In the case of `Cc1ccccc1C(=O)Nc1cccc(OCc2cc(=O)n3c4c(sc3n2)CCCC4)c1`, the survival is reported as inactive: 101%.
`CCOc1ccc(NC(=O)c2ccc3[nH]c(C)cc(=O)c3c2)cc1` was tested, and the survival was inactive: 79%.
With `COc1cccc(CNS(=O)(=O)c2ccc3[nH]c4c(c3c2)CCCCC4)c1` the survival was inactive: 71%.
For `Cc1ccc(C)c(N2CCN(C(=O)c3ccc(-c4nc(COc5ccccc5)c(C)o4)cc3)CC2)c1`, the survival was inactive: 86%.
With `COc1ccc2c(CNCCc3ccccc3C)c(C(=O)O)n(Cc3ccccc3C)c2c1` the survival was inactive: 85%.
With `COc1ccc(CNC(=O)C2CCCN(S(=O)(=O)N(C)c3ccc(F)cc3)C2)cc1OC` (centres undefined) the survival was inactive: 85%.
`O=C(OCc1cc(=O)n2nc(-c3cccs3)sc2n1)c1cccc(Cl)c1` was tested, and the survival was inactive: 54%.
In the case of `CCOC(=O)c1cccc(NC(=O)c2ccc3c(c2)nnn3CC)c1`, the survival is reported as inactive: 66%.
With `COc1cccc(-c2nnc(SCC(=O)N3CCCCC3)o2)c1` the survival was inactive: 98%.
In the case of `COC(=O)C1C2C=CC3(CN(Cc4ccco4)C(=O)C13)O2` (centres undefined), the survival is reported as inactive: 81%.
With `Cc1oc2c(c1C(=O)Nc1ccc(F)c(F)c1)C1=NCCN1C=N2` the survival was inactive: 94%.
In the case of `CC1(C)Cc2nc3sc(C(=O)NN)c(N)c3cc2CO1`, the survival is reported as inactive: 97%.
`CCc1cccc(CC)c1NC(=O)CCS(=O)(=O)c1ccc(Br)s1` was tested, and the survival was inactive: 69%.
For `Cn1cc(-c2cc3n(n2)CCC(=O)N3CCCC(=O)NCc2ccc(F)cc2)c2ccccc21`, the survival was inactive: 88%.
With `COc1ccc2[nH]cc(NC(=O)N3CCN(C)CC3)c(=O)c2c1` the survival was inactive: 100%.
In the case of `CCOC(=O)c1ccccc1Nc1nc2ccc(C)cc2n2nnnc12`, the survival is reported as inactive: 78%.
`Cc1cccc(C)c1NC(=O)c1nc(S(C)(=O)=O)ncc1N(Cc1ccc(C(C)(C)C)cc1)Cc1ccco1` was tested, and the survival was inactive: 49%.
`O=C(CCSc1nnc(-c2ccncc2)o1)Nc1ccccc1` was tested, and the survival was inactive: 74%.
For `CCOc1ccc(NC(=O)c2oc3ccccc3c2NC(=O)C2CCCCC2)cc1`, the survival was inactive: 103%.
For `Cc1ccc(NC(=O)Cn2c(=O)c(C(F)(F)F)nc3ccccc32)cc1C`, the survival was inactive: 60%.
`CCOC(=O)c1ccccc1NC(=O)Cn1nnc2sc3c(c2c1=O)CCCC3` was tested, and the survival was inactive: 63%.
In the case of `Cc1ccc(C(C(=O)NC2CCCCC2)N(C)Cc2ccccc2)cc1` (centres undefined), the survival is reported as active: -3%.
With `Cc1ccc2oc3c(c(=O)c2c1)C(c1ccccc1F)N(c1ccccn1)C3=O` (centres undefined) the survival was inactive: 81%.
`CC(=O)Nc1ccc(-c2csc(N)n2)cc1` was tested, and the survival was inactive: 90%.
With `COc1ccc(Cn2ccnc2SCC(=O)Nc2ccc3c(c2)OCO3)cc1` the survival was inactive: 88%.
`COc1ccc(-c2cc(C(F)(F)F)n3nc(C(=O)Nc4cc(C(F)(F)F)ccc4Cl)cc3n2)cc1OC` was tested, and the survival was inactive: 152%.
With `CCN1CCN(Cc2c(O)ccc3oc(C)c(C(=O)Nc4ccc(OC)cc4)c23)CC1` the survival was inactive: 78%.
With `FC(F)(F)Sc1ccc2noc(-c3ccccc3)c2c1` the survival was inactive: 91%.
`Cc1ccc(NC(=O)CSc2nc3nc(C)c(Cc4ccccc4)c(C)n3n2)cc1` was tested, and the survival was inactive: 60%.
With `CC(C)CNC(=O)N1CCN(S(=O)(=O)c2ccc3c(ccn3C)c2)CC1` the survival was inactive: 80%.
For `CCOC(=O)N1CCN(c2ncc3c(n2)CC(c2ccc(OC)c(OC)c2)CC3=O)CC1` (centres undefined), the survival was inactive: 81%.
